Our source for the cell count values is the supplement of paper PMC4604168 (melanoma cell lines).

Some of the results follow. Repeats are few or missing, and single values can be far off.
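Also: cells treated in 1,536-well plates, then fixed and DAPI-stained, with nuclei counted from automated high-throughput microscope images.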

This assay has as its system WM1716. Description: cell count relative to DMSO control; melanoma cells; higher = more viable cells. Conditions: library dose: standard library concentration; 72 h.
`COc1cc([C@@H]2c3cc4c(cc3[C@@H](O[C@@H]3O[C@@H]5CO[C@@H](C)O[C@H]5[C@H](O)[C@H]3O)[C@H]3COC(=O)[C@H]23)OCO4)cc(OC)c1O` [etoposide] + NC(=O)Nc1cc(-c2cccc(F)c2)sc1C(=O)N[C@H]1CCCNC1 [AZD7762] (first compound 0.1 µM, partner dose 0.1 µM) yielded a cell count of 50.3%.

As for `Cn1cnc2c(F)c(Nc3ccc(Br)cc3Cl)c(C(=O)NOCCO)cc21` [selumetinib] + CN(C)S(=O)(=O)c1ccc2c(c1)/C(=C/c1cc3c([nH]1)CCCC3)C(=O)N2 [SU6656] (first compound 0.075 µM, partner dose 2 µM), the cell count came to 68.8%.

In the case of `C[C@]1(O)C[C@@H](c2nc(-c3ccc4ccc(-c5ccccc5)nc4c3)c3c(N)nccn32)C1` + CO[C@@H]1[C@H](N(C)C(=O)c2ccccc2)C[C@H]2O[C@]1(C)n1c3ccccc3c3c4c(c5c6ccccc6n2c5c31)C(=O)NC4 [Midostaurin] (first compound 2 µM, partner dose 0.4 µM), the cell count came out at 46.4%.

`Cn1cnc2c(F)c(Nc3ccc(Br)cc3Cl)c(C(=O)NOCCO)cc21` [selumetinib] + C[C@@H]1CCN(C(=O)CC#N)C[C@@H]1N(C)c1ncnc2[nH]ccc12 [CP690550] (first compound 0.075 µM, partner dose 5 µM): the cell count is 82%.

Consider `Cn1cnc2c(F)c(Nc3ccc(Br)cc3Cl)c(C(=O)NOCCO)cc21` [selumetinib] + OCCn1cc(-c2cnc3nnn(Cc4ccc5ncccc5c4)c3n2)cn1 [PF04217903] (first compound 0.075 µM, partner dose 5 µM), for which the cell count came out at 65.6%.

For `CCN(CC)CCNC(=O)c1c(C)[nH]c(/C=C2\C(=O)Nc3ccc(F)cc32)c1C` [sunitinib] + CC1(C)NC(=O)N(c2ccc([N+](=O)[O-])c(C(F)(F)F)c2)C1=O [nilutamide] (first compound 2 µM, partner dose 5 µM), the cell count worked out at 83.8%.

As for `Cn1cnc2c(F)c(Nc3ccc(Br)cc3Cl)c(C(=O)NOCCO)cc21` [selumetinib] + CO[C@@H]1[C@H](N(C)C(=O)c2ccccc2)C[C@H]2O[C@]1(C)n1c3ccccc3c3c4c(c5c6ccccc6n2c5c31)C(=O)NC4 [Midostaurin] (first compound 0.075 µM, partner dose 0.4 µM), the cell count amounted to 51.2%.

For `COc1cc([C@@H]2c3cc4c(cc3[C@@H](O[C@@H]3O[C@@H]5CO[C@@H](C)O[C@H]5[C@H](O)[C@H]3O)[C@H]3COC(=O)[C@H]23)OCO4)cc(OC)c1O` [etoposide] + Cc1cc(N2CCOCC2)cc2[nH]c(-c3c(NC[C@@H](O)c4cccc(Cl)c4)cc[nH]c3=O)nc12 [BMS536924] (first compound 0.1 µM, partner dose 1 µM), the cell count came to 74.6%.

With `Cn1cnc2c(F)c(Nc3ccc(Br)cc3Cl)c(C(=O)NOCCO)cc21` [selumetinib] + C=CCn1c(=O)c2cnc(Nc3ccc(N4CCN(C)CC4)cc3)nc2n1-c1cccc(C(C)(C)O)n1 [MK1775] (first compound 0.075 µM, partner dose 0.1 µM), the cell count was determined as 75.1%.

`COc1cc([C@@H]2c3cc4c(cc3[C@@H](O[C@@H]3O[C@@H]5CO[C@@H](C)O[C@H]5[C@H](O)[C@H]3O)[C@H]3COC(=O)[C@H]23)OCO4)cc(OC)c1O` [etoposide] + CO[C@@H]1[C@H](N(C)C(=O)c2ccccc2)C[C@H]2O[C@]1(C)n1c3ccccc3c3c4c(c5c6ccccc6n2c5c31)C(=O)NC4 [Midostaurin] (first compound 0.1 µM, partner dose 0.4 µM) yielded a cell count of 40.9%.

`CCN(CC)CCNC(=O)c1c(C)[nH]c(/C=C2\C(=O)Nc3ccc(F)cc32)c1C` [sunitinib] + C[C@@H]1CCN(C(=O)CC#N)C[C@@H]1N(C)c1ncnc2[nH]ccc12 [CP690550] (first compound 2 µM, partner dose 5 µM) came in with a cell count of 92.9%.

`COc1cc([C@@H]2c3cc4c(cc3[C@@H](O[C@@H]3O[C@@H]5CO[C@@H](C)O[C@H]5[C@H](O)[C@H]3O)[C@H]3COC(=O)[C@H]23)OCO4)cc(OC)c1O` [etoposide] + Nc1ccn([C@@H]2O[C@H](CO)[C@@H](O)C2(F)F)c(=O)n1 [gemcitabine] (first compound 0.1 µM, partner dose 0.002 µM): the cell count was 50.4%.
